# Measured values: the supplement of paper PMC12217912
# The other results are listed elsewhere or left out. The full chains were built here from the parent and the listed change. Values near 0.05 are background.
# B1: TEV protease; numbered along this chain (parent)
# chain: MGESLFKGPRDYNPISSSICHLTNESDGHTTSLYGIGFGPFIITNKHLFRRNNGTLVVQSLHGVFKVKDTTTLQQHLVDGRDMIIIRMPKDFPPFPQKLKFREPQREERICLVTTNFQTKSMSSMVSDTSCTFPSGDGIFWKHWIQTKDGQCGSPLVSTRDGFIVGIHSASNFTNTNNYFTSVPKNFMELLTNQEAQQWVSGWRLNADSVLWGGHKVFMVKPEEPFQPVKEATQL
# Variants of: B1
# Experiment: raw area under fraction-flipped curve 0-4 h after induction (AUC4h, not background-subtracted), DNA-recorder readout of cleavage of the substrate (dimensionless); higher = more cleavage of the substrate by the protease variant
# Details: temperature: 34 °C; time window: 0-4 h after rhamnose induction
# Description: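 In vivo DNA recorder in E. coli TOP10(DE3) ΔrhaA at 34 °C. Each TEVp single-site mutant (parent TEVp 0) is paired with a single-site variant of the 7-mer TEVs (canonical ENLYFQ|S). The substrate sits between flexible linkers in a Bxb1-sfGFP-TEVs-SsrA fusion, so cleavage stabilises Bxb1 and speeds flipping of a recombination array, read by NGS. The value is the raw area under the fraction-flipped curve over 0-4 h after rhamnose induction (AUC4h), with ≥20 reads per time point. It is not background-subtracted; inactive controls average about 0.047.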
# 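Note: Bxb1 expression induced with 0.2% (w/v) L-rhamnose at OD600 near 0.5, cultures sampled hourly, flipped fraction per protease–substrate barcode pair counted by paired-end Illumina sequencing.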
Variant,area with substrate ENLYDQS,area with substrate ENLYEQS,area with substrate ENLYIQS,area with substrate ENLYKQS,area with substrate ENLYMQS,area with substrate ENLYPQS,area with substrate ENLYRQS,area with substrate ENLYVQS,area with substrate ENLYHQS,area with substrate ENLYGQS
G213T,0.0618,0.076,0.0666,0.0232,0.0603,0.0619,0.0594,0.0633,–,–
G214E,0.0501,0.079,–,–,–,0.0683,–,–,0.0675,–
H215L,0.0741,0.0592,0.0668,0.0038,0.0346,0.0579,–,0.0777,–,0.0627
P222T,0.0555,0.0704,0.0937,0.056,0.0853,0.0604,0.0585,0.129,–,0.074
T233P,0.0563,–,–,–,0.0887,–,–,–,–,–
G2H,–,0.0826,0.18,0.0528,–,–,–,–,0.0881,0.0796
G2S,–,0.0695,–,0.0703,–,–,0.0483,–,–,–
F6A,–,0.0714,–,–,–,–,–,–,–,–
F6T,–,0.067,–,–,–,–,–,–,–,0.0424
K7H,–,0.06,–,0.0539,0.09,–,–,–,–,–
K7S,–,0.0583,–,–,0.113,0.0927,–,–,–,–
K7W,–,0.0504,–,–,–,–,0.0617,–,0.0514,–
G8L,–,0.0772,–,0.0816,–,0.0546,0.0604,–,–,–
D11T,–,0.0643,–,–,0.0903,0.0655,–,–,–,0.0627
T31I,–,0.0663,–,0.0623,0.11,–,–,0.13,0.0481,0.0562
G35D,–,0.034,0.031,0.0381,–,0.0411,0.0553,0.0509,0.0442,–
G37C,–,0.0682,–,0.0566,0.0791,0.0665,–,–,–,0.0383
R50N,–,0.0656,–,–,–,–,–,–,–,0.0595
R51H,–,0.0604,–,–,–,–,–,–,–,–
V57Q,–,0.0677,–,–,0.105,–,0.0493,–,0.162,–
V58D,–,0.0515,0.0267,–,–,–,0.0369,–,–,–
V58G,–,0.0525,–,–,–,0.0473,–,–,–,0.0473
V58S,–,0.0619,–,–,0.08,–,0.0566,0.0876,–,0.0607
Q59H,–,0.0685,0.122,0.0575,0.0974,–,0.0713,0.131,0.0685,0.0766
S60G,–,0.0516,0.114,0.0685,–,–,0.0693,–,0.0613,–
L61F,–,0.0723,0.0915,–,–,–,–,–,–,0.0617
Q74P,–,0.0675,–,0.046,–,–,–,–,–,–

# Same assay, conditions: temperature: 34 °C; time window: 0-4 h after rhamnose induction
Variant,area with substrate ENLYQQS,area with substrate ENLYSQS,area with substrate ENLYTQS,area with substrate ENLYWQS,area with substrate ENLYYQS,area with substrate ENLYNQS,area with substrate ENLYLQS
H215L,0.0766,0.0705,0.07,0.0449,0.0531,–,–
P222T,0.0507,0.0676,–,–,–,–,–
G2H,0.0633,0.096,–,–,–,–,–
F6T,0.054,–,–,–,–,0.0821,–
K7H,0.0597,0.0674,–,–,–,–,–
K7S,–,0.0807,–,–,0.0849,–,–
K7W,–,0.0538,–,–,–,–,–
G8L,–,–,–,–,–,0.069,0.0848
D11T,–,–,–,0.0715,–,–,–
T31I,0.0504,–,–,–,0.0665,–,–
G35D,–,–,–,0.0463,–,–,–
G37C,–,–,0.104,0.0635,–,0.0683,–
R50N,–,–,–,0.0872,–,–,–
V57Q,–,–,–,–,–,0.0643,–
V58D,–,–,–,0.0543,–,0.042,–
V58G,–,–,–,0.0609,–,0.0568,–
V58S,0.0471,0.0302,–,0.0875,–,0.0855,–
Q59H,0.0704,0.0613,0.112,0.061,0.0673,0.0607,–
S60G,0.0919,–,–,–,–,–,0.067
Q74P,–,0.078,–,–,–,0.0871,–
